The record followed here is publication PMC4336329 (PLoS ONE, 2015).

Screen size: about 310,000 compounds; about 2,200 (0.71%) showed an effect of 50% or more. The effect is printed as a negative number. Some of the results follow.

human ether-à-go-go-related gene (hERG) potassium channel, sequence (Q12809 whole entry, looked up): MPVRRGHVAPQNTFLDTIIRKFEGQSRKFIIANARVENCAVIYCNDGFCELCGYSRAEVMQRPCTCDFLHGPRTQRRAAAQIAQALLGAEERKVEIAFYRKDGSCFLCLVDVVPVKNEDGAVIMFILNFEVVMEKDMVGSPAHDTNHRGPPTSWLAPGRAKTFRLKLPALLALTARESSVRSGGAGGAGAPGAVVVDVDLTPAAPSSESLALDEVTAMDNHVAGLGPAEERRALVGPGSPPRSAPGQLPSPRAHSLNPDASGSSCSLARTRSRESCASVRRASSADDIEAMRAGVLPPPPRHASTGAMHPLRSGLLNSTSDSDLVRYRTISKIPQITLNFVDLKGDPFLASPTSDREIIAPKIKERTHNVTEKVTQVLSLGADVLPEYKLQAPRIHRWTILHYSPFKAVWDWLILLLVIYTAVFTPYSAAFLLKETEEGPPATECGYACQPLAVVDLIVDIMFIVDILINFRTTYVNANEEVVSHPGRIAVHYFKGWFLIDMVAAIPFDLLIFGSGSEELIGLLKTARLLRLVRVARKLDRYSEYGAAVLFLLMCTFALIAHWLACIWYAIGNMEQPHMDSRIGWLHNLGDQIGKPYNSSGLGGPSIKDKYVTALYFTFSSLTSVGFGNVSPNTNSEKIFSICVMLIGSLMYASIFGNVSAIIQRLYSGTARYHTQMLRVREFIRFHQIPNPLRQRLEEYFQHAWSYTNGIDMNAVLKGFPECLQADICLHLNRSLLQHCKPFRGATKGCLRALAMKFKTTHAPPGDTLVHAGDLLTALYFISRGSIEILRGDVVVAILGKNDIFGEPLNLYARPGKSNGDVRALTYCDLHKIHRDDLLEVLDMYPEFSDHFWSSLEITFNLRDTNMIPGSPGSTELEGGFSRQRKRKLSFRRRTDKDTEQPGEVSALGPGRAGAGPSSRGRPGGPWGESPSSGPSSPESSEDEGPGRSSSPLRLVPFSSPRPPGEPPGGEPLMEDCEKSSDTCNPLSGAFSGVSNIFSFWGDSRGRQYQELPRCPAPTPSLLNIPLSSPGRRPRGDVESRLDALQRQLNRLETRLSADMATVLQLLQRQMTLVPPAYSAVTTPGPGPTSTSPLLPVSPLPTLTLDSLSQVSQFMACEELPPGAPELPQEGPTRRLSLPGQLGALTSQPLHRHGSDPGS

The experiment addresses human ether-à-go-go-related gene (hERG) potassium channel (human, UniProt Q12809). Briefly: primary screen, population patch clamp on CHO cells stably expressing hERG.
On to `Cc1ccc(CN2CCC(NC(=O)c3ccccc3)CC2)cc1`, for which the “hERG current change (%, negative = inhibition) at 1uM” value is reported as -52.8%. The result for `O=c1[nH]c(Cc2cccs2)nc2scc(-c3ccc(Cl)cc3)c12` reads -3.08%. The result for `Cc1cc(C)cc(NC(=O)N(C)Cc2ccccc2)c1` reads 17.5%; that for `CCOc1ccc(CC(=O)Nc2ccc(-c3ccc4nnc(C)n4n3)cc2)cc1`, 1.75%; that for `O=C(NNC1=C(C(=O)C(F)(F)F)CCC1)c1cccnc1`, 6.24%. The result for `CCOC(=O)N1CCN(C(=O)CN(C2CCCCC2)S(C)(=O)=O)CC1` reads 9.97%.

For `CCOc1ccc(NC(=O)C(=O)N/N=C\c2ccc(CNS(=O)(=O)c3ccccc3)o2)cc1`, the “hERG current change (%, negative = inhibition) at 1uM” value is on record as -2.54%. Consider `Cc1ccc(C(=O)CCC(=O)N2CCN(C(=O)c3ccco3)CC2)cc1`, for which the “hERG current change (%, negative = inhibition) at 1uM” value is given as -23.9%. The result for `N/C(=N\OC(=O)Cc1cccs1)c1cccc([N+](=O)[O-])c1` reads 6.08%; that for `O=C(NNc1cc(N2CCOCC2)nc(N2CCOCC2)n1)C12CC3CC(CC(C3)C1)C2`, 9.43%. The result for `CCOc1ccc(/C=C\C(C)=N\O)cc1` reads 12.6%. The result for `Cc1ccc(NC(=O)c2ccc(Cl)nc2)cc1` reads 13.4%; that for `O=C(Cc1nc2ccccc2s1)c1ccc(O)cc1O`, 6.12%.

For `CCOC(=O)C1CCN(S(=O)(=O)c2ccc(-c3nc4ccccc4s3)s2)CC1`, the “hERG current change (%, negative = inhibition) at 1uM” value is on record as 4.56%.

As to `O=C(Nc1ccc2nc3n(c(=O)c2c1)CCCCC3)c1ccccn1`, the “hERG current change (%, negative = inhibition) at 1uM” value amounted to 3.03%. The result for `Cc1cccc(NC(=O)Nc2ccc(OCc3ccccc3)cc2)n1` reads 11.6%; that for `CC(C)NC(=S)N/N=C/c1c[nH]c2ccccc12`, 7.86%; that for `CCOC(=O)C1CCN(C(=O)CCNC(=O)c2cc(OC)c(OC)c(OC)c2)CC1`, 10.7%. For the compound `Oc1ccc(/C(Cc2ccc3ccccc3n2)=N\Nc2ccccc2)c(O)c1`, the “hERG current change (%, negative = inhibition) at 1uM” value was determined as 20.6%.

Consider `Cc1ccc(-n2ncc(C(=O)NCc3ccc4c(c3)OCO4)c2NC(=O)c2ccco2)cc1C`, for which the “hERG current change (%, negative = inhibition) at 1uM” value is listed as 4.3%. The result for `COc1cccc(-n2c(/C=C/c3ccccn3)nc3ccccc3c2=O)c1` reads 12.7%; that for `Cc1ccc(NS(=O)(=O)c2ccc(C(=O)N3CC(C)OC(C)C3)cc2)cc1` (centres unmarked), 8.63%. The result for `Cc1ccc(NCc2nnc(SCC(=O)c3ccccc3)n2Cc2ccco2)c(C)c1` reads 8.86%; that for `Cc1c(Nc2nc(C(F)(F)F)nc3ccccc23)c(=O)n(-c2ccccc2)n1C`, 8.07%; that for `Cc1ccc2nc(Cl)c(/C=N/Nc3ccc(C(=O)O)cc3)cc2c1`, 13.9%. The result for `COc1ccc(S(=O)(=O)N2CCCC(C(=O)NCC3CCCO3)C2)cc1Cl` (centres unmarked) reads 14.3%; that for `Nc1nonc1-n1nnc(C(=O)N/N=C/c2ccc(F)cc2)c1-c1ccc2c(c1)OCO2`, -4.12%. Take `Cc1nn(Cc2ccc(C(=O)O)o2)c(C)c1[N+](=O)[O-]`: the “hERG current change (%, negative = inhibition) at 1uM” value is reported as 8.13%. For `CCC(C)NC(=O)c1ccc(CN2CCc3ccccc3C2)cc1` (centres unmarked), the “hERG current change (%, negative = inhibition) at 1uM” value is given as 11.9%.

With `COc1ccc(C(=O)Nn2c(C)nc3ccccc3c2=O)cc1OC`, the “hERG current change (%, negative = inhibition) at 1uM” value was determined as 17.4%. Regarding `O=C(CSc1nc2c(c(=O)[nH]1)CN(Cc1ccc(F)cc1)CC2)Nc1ccc(F)cc1`, the “hERG current change (%, negative = inhibition) at 1uM” value is on record as -5.64%. Turning to `Cc1cccc(NC(=O)COC(=O)CNC(=O)C2CCCCC2)c1`, the “hERG current change (%, negative = inhibition) at 1uM” value came to 3.25%. The result for `c1coc(CNc2ncnc3c2oc2ccccc23)c1` reads 2.39%; that for `O=C(Nc1ccccc1C(F)(F)F)c1ccc2nccnc2c1`, 14.9%.

Regarding `O=C(NCC1CCCO1)/C(=C/c1ccccc1F)NC(=O)c1ccccc1` (centres unmarked), the “hERG current change (%, negative = inhibition) at 1uM” value came out at 10%. As for `CCOC(=O)CNC(=O)CSc1nnc(-c2ccc(OC)cc2)n1CC`, the figure is 12%. The result for `Cn1nnnc1SCC(=O)N1CCN(c2ccccc2)CC1` reads 2.03%; that for `Cc1ccc(-n2c(CCc3ccccc3)nnc2SCC(=O)NCc2ccccc2)cc1C`, 9.84%; that for `COc1cc(OC)cc(C(=O)NC(C(=O)O)C23CC4CC(CC(C4)C2)C3)c1` (centres unmarked), 10.7%. As for `C/C(=N\N1CCN(Cc2ccccc2)CC1)c1ccco1`, the figure is 8.67%; as for `S=C(NCCc1ccccc1)N1CCN(C23CC4CC(CC(C4)C2)C3)CC1`, -22.1%.

With `S=C(Nc1cccc(Cl)c1)N(CCCN1CCCC1)Cc1cccn1Cc1ccc(Cl)cc1`, the “hERG current change (%, negative = inhibition) at 1uM” value was 1.06%. The result for `Cc1cc(C)nc(NS(=O)(=O)c2ccc(N=Cc3c(C)[nH]n(-c4ccccc4)c3=O)cc2)n1` reads 17.5%. With `COc1ccccc1NC(=S)N1CCC(C(=O)c2ccc(F)cc2)CC1`, the “hERG current change (%, negative = inhibition) at 1uM” value is recorded as 6.18%.

Take `COCCNC(=O)C1CCC(CNS(=O)(=O)c2ccc(F)cc2)CC1` (centres unmarked): the “hERG current change (%, negative = inhibition) at 1uM” value stood at 11.3%. As for `Cc1ccc(NC(=O)CCCOc2ccccc2)cc1S(=O)(=O)N1CCOCC1`, the figure is 2.85%; as for `C#CC[N+]1(CC#Cc2cccc(C)c2)CCCCC1.[Br-]`, 3.55%; as for `O=C(Nc1nc2ccc([N+](=O)[O-])cc2s1)c1c(F)cccc1F`, 7.94%. As for `CCCCCn1c(=O)c(C(=O)NCCc2ccccc2)c(O)c2ccccc21`, the figure is 20.5%; as for `O=C(C1CCCCC1)N1CCCC(c2nc(-c3ccc(F)cc3)no2)C1` (centres unmarked), 9.37%. The result for `CC1(C)CC(=O)C2=C(C1)Nc1ccccc1S2` reads 12.2%; that for `Cc1cccn2c(=O)c(C(=O)NC3CC(C)CC(C)(C)C3)c(O)nc12` (centres unmarked), -11.4%. Regarding `O=C(Cc1ccccc1)NNC(=S)NC(=O)c1cccs1`, the “hERG current change (%, negative = inhibition) at 1uM” value amounted to 13.4%. In the case of `O=C(Cc1ccc(Cl)cc1)Nc1ccc(NC(=O)c2cccs2)cc1`, the “hERG current change (%, negative = inhibition) at 1uM” value stood at 9.53%. As for `COc1ccc(C(=O)N2CCC(O)(c3ccc(F)cc3)CC2)cc1OC`, the figure is -1.45%. `CCN1C(=O)CS/C1=N\S(=O)(=O)c1ccc(C)cc1`: the “hERG current change (%, negative = inhibition) at 1uM” value was determined as 3.7%.

Turning to `CCOc1ccc(S(=O)(=O)N2CCC(C(=O)NC3CC3)CC2)cc1Cl`, the “hERG current change (%, negative = inhibition) at 1uM” value was 7.65%. The result for `O=C(CN1C(=O)S/C(=C\c2ccccc2)C1=O)NNC(=O)c1ccccc1O` reads 7%. Regarding `CCOC(=O)CON1C(=O)c2ccccc2C1=O`, the “hERG current change (%, negative = inhibition) at 1uM” value is on record as 10.5%. Consider `O=C(O)CC(NC(=O)c1cccc(F)c1)c1ccc(OC2CCCC2)cc1` (centres unmarked), for which the “hERG current change (%, negative = inhibition) at 1uM” value was found to be 12.8%. As to `CCOC(=O)C1CCN(Cc2ccc3ccccc3c2)CC1`, the “hERG current change (%, negative = inhibition) at 1uM” value came to 8.55%.

Take `Clc1ccccc1CSc1cc2c(nn1)-c1ccccc1CC2`: the “hERG current change (%, negative = inhibition) at 1uM” value is -8.69%. The result for `COc1ccc(CN2CCN(C(=O)CCC(=O)c3ccc(C)s3)CC2)cc1OC` reads 3.78%; that for `CSc1ccc(CNc2ccc(Cl)cc2)cc1`, 5.46%.

`O=C(NCCC1=CCCCC1)c1cccc2c1C(=O)N(C1CCCCC1)C2`: the “hERG current change (%, negative = inhibition) at 1uM” value came out at 7.18%. As for `Nc1nn(S(=O)(=O)c2cccc3nsnc23)cc1-c1ccc(Br)cc1`, the figure is 11.4%; as for `CCSc1nnc(NC(=O)CN2C(=O)NC3(CCCC3)C2=O)s1`, 7%; as for `CCCCNc1c(-c2cccc(SC3CCCCC3)c2)nc2ccc(Cl)cn12.O=C(O)C(F)(F)F`, -0.679%. As to `COC(=O)c1cccc(COC(=O)CNC(=O)c2ccco2)c1`, the “hERG current change (%, negative = inhibition) at 1uM” value stood at 21.1%.

Regarding `O=S(=O)(c1ccccc1)N1c2cc(Cl)ccc2Oc2nc3ccccc3nc21`, the “hERG current change (%, negative = inhibition) at 1uM” value is listed as -3.11%. As for `CC(c1ccccc1)N1CCc2[nH]c(=S)[nH]c(=O)c2C1` (centres unmarked), the figure is 10.9%. As for `COCc1nnc(NC(=O)CSCc2ccccc2)s1`, the figure is 14.5%.

Take `CCOc1ccc(C(=O)CCC(=O)N(CC)CC(=O)NCc2ccc(Cl)cc2)cc1`: the “hERG current change (%, negative = inhibition) at 1uM” value is on record as -8.36%. As to `O=c1[nH]c2ccc(Cl)cc2c(O)c1-c1ccccc1`, the “hERG current change (%, negative = inhibition) at 1uM” value is 14.6%. As for `OCC1CCCCN1CCNCc1cn[nH]c1-c1cccc2ccccc12` (centres unmarked), the figure is 2.34%; as for `CCC(C(=O)OCC(=O)Nc1ccc(F)cc1)c1ccccc1` (centres unmarked), -0.329%; as for `Cc1nc(N2CCCCC2)sc1C=O`, 16.2%.

Consider `COC(=O)C1=C(C)NC(C)=C(C(=O)OC)C1c1ccccc1OCc1c(C)no[n+]1[O-]`, for which the “hERG current change (%, negative = inhibition) at 1uM” value was -7.56%. As for `CC1CC(C)(C)NC(=S)N1CCCC(=O)Nc1ccc(F)cc1` (centres unmarked), the figure is 11.6%. Take `CCCC(=O)N(Cc1cc(=O)[nH]c2ccccc12)c1ccc(C)cc1C`: the “hERG current change (%, negative = inhibition) at 1uM” value amounted to 15.1%. As for `CC(=O)Nc1cccc(Oc2nc(C(F)(F)F)nc3ccccc23)c1`, the figure is 2.68%; as for `C=CCn1c2ccccc2c2nnc(SCC(N)=O)nc21`, 11.7%. As for `Cc1cc(C)cc(-n2cccc2/C=C2/C(=N)N3C(=NC2=O)SN=C3S(C)(=O)=O)c1`, the figure is 3.74%. As for `O=C(CSc1nccn1-c1ncc(C(F)(F)F)cc1Cl)c1ccc(Cl)cc1`, the figure is 10.6%; as for `Cn1c(Cc2ccccc2)nnc1SCc1cc(=O)n2ccsc2n1`, 37.2%; as for `Cc1ccc2nc(NC(=O)c3ccc(-c4nc5ccccc5s4)s3)sc2c1`, 10.3%.

Take `CS(=O)(=O)Nc1ccc(C2=NN(C(=O)c3ccco3)C(c3cccc(F)c3)C2)cc1` (centres unmarked): the “hERG current change (%, negative = inhibition) at 1uM” value is given as -85.9%.

Regarding `COc1ccccc1NC(=O)CC(=O)Nc1ccccc1OC`, the “hERG current change (%, negative = inhibition) at 1uM” value was determined as 13.7%. The result for `Cc1cccc(N(Cc2ccc(Cl)cc2)S(C)(=O)=O)c1` reads 26.6%.
